Source: the supplement of paper PMC8728848
This is one part of the list.

What was measured:
Assay in all cases: glycan array binding signal (z-score within array); higher = stronger binding
Conditions in all cases: glycan notation: IUPAC condensed, linker removed
[1] = target: Gal(b1-4)GlcNAc(b1-2)Man(a1-6)[Man(a1-3)]Man(b1-4)GlcNAc(b1-4)GlcNAc
Outline: (§1)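 Glycan array binding is given as a within-array Z-score, which can be read as non-binding when negative. The arrays, 3228 of them, came from the Consortium for Functional Glycomics database and were retained only where the protein sequence was available. Z-scores were averaged across arrays of the same protein sequence at different concentrations or buffers and across linkers.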

[2] = target: Gal(b1-4)GlcNAc(b1-2)[Gal(b1-4)GlcNAc(b1-4)]Man(a1-3)[Gal(b1-4)GlcNAc(b1-2)Man(a1-6)]Man(b1-4)GlcNAc(b1-4)GlcNAc
Outline: as §1

[3] = target: Gal(b1-4)GlcNAc(b1-2)[Gal(b1-4)GlcNAc(b1-4)]Man(a1-3)[Gal(b1-4)GlcNAc(b1-2)[Gal(b1-4)GlcNAc(b1-6)]Man(a1-6)]Man(b1-4)GlcNAc(b1-4)GlcNAc
Outline: as §1

[4] = target: Gal(b1-4)GlcNAc(b1-2)[Gal(b1-4)GlcNAc(b1-4)]Man(a1-3)[GlcNAc(b1-4)][Gal(b1-4)GlcNAc(b1-2)Man(a1-6)]Man(b1-4)GlcNAc(b1-4)GlcNAc
Outline: as §1

[5] = target: Gal(b1-4)GlcNAc(b1-2)[Gal(b1-4)GlcNAc(b1-4)]Man(a1-3)[GlcNAc(b1-4)][Gal(b1-4)GlcNAc(b1-2)[Gal(b1-4)GlcNAc(b1-6)]Man(a1-6)]Man(b1-4)GlcNAc(b1-4)GlcNAc
Outline: as §1

[6] = target: Gal(b1-4)GlcNAc(b1-2)[Gal(b1-4)GlcNAc(b1-6)]Man(a1-6)[Gal(b1-4)GlcNAc(b1-2)Man(a1-3)]Man(b1-4)GlcNAc(b1-4)GlcNAc
Outline: as §1

[7] = target: Gal(b1-4)GlcNAc(b1-2)[Gal(b1-4)GlcNAc(b1-6)]Man(a1-6)[Gal(b1-4)GlcNAc(b1-2)Man(a1-3)]Man(b1-4)GlcNAc(b1-4)[Fuc(a1-6)]GlcNAc
Outline: as §1

[8] = target: Gal(b1-4)GlcNAc(b1-2)[Gal(b1-4)GlcNAc(b1-6)]Man(a1-6)[GlcNAc(b1-4)][Gal(b1-4)GlcNAc(b1-2)Man(a1-3)]Man(b1-4)GlcNAc(b1-4)GlcNAc
Outline: as §1

[9] = target: Gal(b1-4)GlcNAc(b1-2)[Gal(b1-4)GlcNAc(b1-6)]Man(a1-6)[GlcNAc(b1-4)][Gal(b1-4)GlcNAc(b1-2)[Gal(b1-4)GlcNAc(b1-4)]Man(a1-3)]Man(b1-4)GlcNAc(b1-4)[Fuc(a1-6)]GlcNAc
Outline: as §1

[10] = target: Gal(b1-4)GlcNAc(b1-3)Gal(b1-3)GalNAc
Outline: as §1

[11] = target: Gal(b1-4)GlcNAc(b1-3)Gal(b1-3)GlcNAc
Outline: as §1

[12] = target: Gal(b1-4)GlcNAc(b1-3)Gal(b1-4)Glc
Outline: as §1

[13] = target: Gal(b1-4)GlcNAc(b1-3)Gal(b1-4)GlcNAc
Outline: as §1

[14] = target: Gal(b1-4)GlcNAc(b1-3)Gal(b1-4)GlcNAc(b1-2)Man(a1-3)[Gal(b1-4)GlcNAc(b1-3)Gal(b1-4)GlcNAc(b1-2)Man(a1-6)]Man(b1-4)GlcNAc(b1-4)GlcNAc
Outline: as §1

[15] = target: Gal(b1-4)GlcNAc(b1-3)Gal(b1-4)GlcNAc(b1-2)Man(a1-3)[Gal(b1-4)GlcNAc(b1-3)Gal(b1-4)GlcNAc(b1-2)Man(a1-6)]Man(b1-4)GlcNAc(b1-4)[Fuc(a1-6)]GlcNAc
Outline: as §1

[16] = target: Gal(b1-4)GlcNAc(b1-3)Gal(b1-4)GlcNAc(b1-2)[Gal(b1-4)GlcNAc(b1-3)Gal(b1-4)GlcNAc(b1-6)]Man(a1-6)[Gal(b1-4)GlcNAc(b1-3)Gal(b1-4)GlcNAc(b1-2)Man(a1-3)]Man(b1-4)GlcNAc(b1-4)GlcNAc
Outline: as §1

[17] = target: Gal(b1-4)GlcNAc(b1-3)Gal(b1-4)GlcNAc(b1-2)[Gal(b1-4)GlcNAc(b1-3)Gal(b1-4)GlcNAc(b1-6)]Man(a1-6)[Gal(b1-4)GlcNAc(b1-3)Gal(b1-4)GlcNAc(b1-2)Man(a1-3)]Man(b1-4)GlcNAc(b1-4)[Fuc(a1-6)]GlcNAc
Outline: as §1

[18] = target: Gal(b1-4)GlcNAc(b1-3)Gal(b1-4)GlcNAc(b1-3)Gal(b1-4)GlcNAc
Outline: as §1

[19] = target: Gal(b1-4)GlcNAc(b1-3)Gal(b1-4)GlcNAc(b1-3)Gal(b1-4)GlcNAc(b1-2)Man(a1-3)[Gal(b1-4)GlcNAc(b1-3)Gal(b1-4)GlcNAc(b1-3)Gal(b1-4)GlcNAc(b1-2)Man(a1-6)]Man(b1-4)GlcNAc(b1-4)GlcNAc
Outline: as §1

[20] = target: Gal(b1-4)GlcNAc(b1-3)Gal(b1-4)GlcNAc(b1-3)Gal(b1-4)GlcNAc(b1-2)Man(a1-3)[Gal(b1-4)GlcNAc(b1-3)Gal(b1-4)GlcNAc(b1-3)Gal(b1-4)GlcNAc(b1-2)Man(a1-6)]Man(b1-4)GlcNAc(b1-4)[Fuc(a1-6)]GlcNAc
Outline: as §1

[21] = target: Gal(b1-4)GlcNAc(b1-3)Gal(b1-4)GlcNAc(b1-3)Gal(b1-4)GlcNAc(b1-2)[Gal(b1-4)GlcNAc(b1-3)Gal(b1-4)GlcNAc(b1-3)Gal(b1-4)GlcNAc(b1-6)]Man(a1-6)[Gal(b1-4)GlcNAc(b1-3)Gal(b1-4)GlcNAc(b1-3)Gal(b1-4)GlcNAc(b1-2)Man(a1-3)]Man(b1-4)GlcNAc(b1-4)[Fuc(a1-6)]GlcNAc
Outline: as §1

[22] = target: Gal(b1-4)GlcNAc(b1-3)Gal(b1-4)GlcNAc(b1-3)Gal(b1-4)GlcNAc(b1-3)Gal(b1-4)GlcNAc(b1-2)Man(a1-3)[Gal(b1-4)GlcNAc(b1-3)Gal(b1-4)GlcNAc(b1-3)Gal(b1-4)GlcNAc(b1-3)Gal(b1-4)GlcNAc(b1-2)Man(a1-6)]Man(b1-4)GlcNAc(b1-4)GlcNAc
Outline: as §1

B1: PfulAvr4 (Pseudocercospora fuligena) (protein)
chain: HHHHHHDYKDDDDKTYVQDKTPAFVCPAADIKTTKCLGPKDCLYPSPKTCNGYIQCSPADDSYLTGIIHEMPCPSGLLWNDNKKWCDWPENTTCGLVKSAGATEVDATKQGPTPGKYHG
- glycan array binding signal (z-score) [1]: 0.023
- glycan array binding signal (z-score) [2]: -0.046
- glycan array binding signal (z-score) [3]: -0.126
- glycan array binding signal (z-score) [4]: 0.013
- glycan array binding signal (z-score) [5]: 0.082
- glycan array binding signal (z-score) [6]: 0.026
- glycan array binding signal (z-score) [7]: -0.131
- glycan array binding signal (z-score) [8]: 0.008
- glycan array binding signal (z-score) [9]: -0.015
- glycan array binding signal (z-score) [10]: -0.122
- glycan array binding signal (z-score) [11]: -0.04
- glycan array binding signal (z-score) [12]: -0.097
- glycan array binding signal (z-score) [13]: -0.014
- glycan array binding signal (z-score) [14]: 0.677
- glycan array binding signal (z-score) [15]: -0.008
- glycan array binding signal (z-score) [16]: 1.38
- glycan array binding signal (z-score) [17]: -0.13
- glycan array binding signal (z-score) [18]: -0.156
- glycan array binding signal (z-score) [19]: -0.027
- glycan array binding signal (z-score) [20]: -0.02
- glycan array binding signal (z-score) [21]: -0.101
- glycan array binding signal (z-score) [22]: -0.024
